Patent US20250214977A1, “STAT6 INHIBITORS AND USES THEREOF” (Kymera Therapeutics, Inc., priority 2024, published 2025)

Target: T1, biotinylated truncated STAT6 (123-632)-avi (Homo sapiens, UniProt P42226)
T1 sequence (P42226 123-632 limits assumed): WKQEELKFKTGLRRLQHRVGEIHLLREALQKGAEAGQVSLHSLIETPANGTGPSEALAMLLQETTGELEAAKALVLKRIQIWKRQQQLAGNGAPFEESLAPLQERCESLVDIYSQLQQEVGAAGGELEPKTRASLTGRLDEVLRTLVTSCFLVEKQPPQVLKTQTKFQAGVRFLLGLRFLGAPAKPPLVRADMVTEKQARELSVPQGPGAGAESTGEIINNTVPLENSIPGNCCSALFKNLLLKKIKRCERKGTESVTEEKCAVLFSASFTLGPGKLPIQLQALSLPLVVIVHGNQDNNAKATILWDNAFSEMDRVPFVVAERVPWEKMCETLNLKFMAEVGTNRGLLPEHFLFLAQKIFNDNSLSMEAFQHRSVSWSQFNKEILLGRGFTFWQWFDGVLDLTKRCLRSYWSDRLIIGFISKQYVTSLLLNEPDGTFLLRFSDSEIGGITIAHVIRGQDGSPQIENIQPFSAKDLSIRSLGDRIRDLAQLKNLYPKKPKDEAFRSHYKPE
Test: Homogenous Time-Resolved Fluorescence (HTRF) binding assay
Settings: 0.15 nM biotinylated truncated STAT6 (123-632)-avi, 20 nM fluorescein-labeled probe

Compound: CCc1nc(C)ccc1-c1cc(C(=O)N2CCN(c3ncc(F)cc3OC)CC2)cc2cc(C3=CCCN(C(=O)CCn4ccnn4)C3)n(CC3CC3)c12 [Example I-517]
- IC50 (30 minutes at room temperature): < 100 nM

Compound: COc1ccccc1-c1cc(C2=CCCN(C(=O)CCn3ccnn3)C2)c(F)c2[nH]c(C(=O)N3CCN(c4ccc(=O)[nH]c4C)CC3)cc12 [Example I-1022]
- IC50 (30 minutes at room temperature): < 100 nM

Compound: COc1ccccc1-c1cc(C2=CCCN(C(=O)CCn3ccnn3)C2)c(F)c2[nH]c(C(=O)N3CCN(c4ccccc4Cl)CC3)cc12 [Example I-423]
- IC50 (30 minutes at room temperature): < 100 nM

Compound: CCc1ccc(-c2cc(C(=O)N3Cc4cnn(CC)c4C3)cc3cc(C4=CCCN(C(C)=O)C4)n(CC4CC4)c23)c(C)n1 [Example I-1046]
- IC50 (30 minutes at room temperature): 100 to 1000 nM

Compound: O=C(CCn1ccnn1)N1CCCC(n2ccc3cc(-c4ncccn4)ccc32)C1 (stereo not shown) [Example I-1301]
- IC50 (30 minutes room temperature): 10000 to 100000 nM

Compound: CCn1cc(C#N)c(NC(=O)c2cc3c(-c4ccccc4OC)cc(C4=CCCN(C(=O)CCn5ccnn5)C4)c(F)c3[nH]2)n1 [Example I-1350]
- IC50 (30 minutes room temperature): < 100 nM

Compound: COc1ccccc1-c1cc(C2=CCCN(C(=O)CCn3ccnn3)C2)c(F)c2[nH]c(C(=O)N3CCN(c4nnn(C)c4C)CC3)cc12 [Example I-778]
- IC50 (30 minutes at room temperature): < 100 nM

Compound: CN(C)C(=O)c1ccc2oc(C3=CCCN(C(=O)CCn4ccnn4)C3)cc2c1 [Example I-1683]
- IC50 (30 minutes room temperature): 1000 to 10000 nM

Compound: COc1ccncc1-c1cc(C2=CCCN(C(=O)CCn3ccnn3)C2)c(F)c2[nH]c(C(=O)N3CCN(c4nccnc4OC)CC3)cc12 [Example I-441]
- IC50 (30 minutes at room temperature): < 100 nM

Compound: CCc1cc(C)ncc1-c1cc(C2=CCCN(C(=O)CCn3ccnn3)C2)c(F)c2[nH]c(C(=O)N3CCN(c4ncc(F)cc4OC)CC3)cc12 [Example I-742]
- IC50 (30 minutes at room temperature): < 100 nM

Compound: COc1cccnc1N1CCN(C(=O)c2cc3c(C4CCC5(CCNCC5)CC4)cc(C4=CCCN(C(=O)CCn5ccnn5)C4)c(F)c3[nH]2)CC1 [Example I-698]
- IC50 (30 minutes at room temperature): 10000 to 100000 nM

Compound: CN(C)C(=O)c1cc2cc(C3=CCCN(C(=O)CCn4ccnn4)C3)cc(NCc3cccc4ncccc34)c2o1 [Example I-871]
- IC50 (30 minutes at room temperature): < 100 nM

Compound: COc1ccccc1-c1cc(C2=CCCN(C(=O)CCn3ccnn3)C2)c(F)c2[nH]c(C(=O)N3CCN(c4scnc4C)CC3)cc12 [Example I-777]
- IC50 (30 minutes at room temperature): < 100 nM

Compound: CC(=O)N1CCC=C(c2cc(-c3ccccc3N(C)C)c3cc(C(=O)N(C)C)[nH]c3c2F)C1 [Example I-1093]
- IC50 (30 minutes at room temperature): 100 to 1000 nM

Compound: CNc1ccc(-c2cc(C3=CCCN(C(=O)C4Cc5ccccc5CN4C=O)C3)cc3[nH]c(C(=O)N(C)C)cc23)cc1 (stereo not shown) [Example I-551]
- IC50 (30 minutes at room temperature): < 100 nM

Compound: COc1cc(F)cnc1N1CCN(C(=O)c2cc3c(-c4cc(O)cc5ccccc45)cc(C4=CCCN(C(=O)CCn5ccnn5)C4)c(F)c3[nH]2)CC1 [Example I-659]
- IC50 (30 minutes at room temperature): < 100 nM

Compound: COc1ncccc1-c1cc(C2=CCCN(C(=O)CCn3ccnn3)C2)cc2cc(C(=O)N(C)C)oc12 [Example I-1082]
- IC50 (30 minutes at room temperature): < 100 nM

Compound: COc1ccccc1-c1cc(C2=CCCN(C(=O)CCn3ccnn3)C2)c(F)c2[nH]c(C(=O)N3CCN(c4cc(C)nc(C)n4)CC3)cc12 [Example I-1380]
- IC50 (30 minutes room temperature): < 100 nM

Compound: CCC1=C(c2cc(C3=CCCN(C(=O)CCn4ccnn4)C3)c(F)c3[nH]c(C(=O)N4CCN(c5ncc(F)cc5OC)CC4)cc23)CN(C)CC1 [Example I-730]
- IC50 (30 minutes at room temperature): < 100 nM

Compound: COc1ccccc1-c1cc(C2=CCCN(C(=O)CCn3ccnn3)C2)c(F)c2[nH]c(C(=O)N3CCN(c4ccnc5[nH]cc(C#N)c45)CC3)cc12 [Example I-1433]
- IC50 (30 minutes room temperature): < 100 nM

Compound: CN(C)C(=O)c1cc2cc(C3=CCCN(C(=O)Cn4ccnc4)C3)ccc2o1 [Example I-311]
- IC50 (30 minutes at room temperature): 10000 to 100000 nM

Compound: CN(C)C(=O)c1cc2ccc(C3=CCCN(C(=O)c4ccc(N5CCOCC5)c(F)c4)C3)cc2[nH]1 [Example I-158]
- IC50 (30 minutes at room temperature): 1000 to 10000 nM

Compound: COc1ccncc1-c1cc(C2=CCCN(C(=O)CCn3ccnn3)C2)c(F)c2[nH]c(C(=O)N(C)C3CC3)cc12 [Example I-1341]
- IC50 (30 minutes room temperature): < 100 nM

Compound: CN(C)C(=O)c1cc2cc(C3=CCCN(C(=O)C4Cc5ccccc5CN4C=O)C3)ccc2[nH]1 (stereo not shown) [Example I-201]
- IC50 (30 minutes at room temperature): 1000 to 10000 nM

Compound: CCn1ncc2c1CN(C(=O)c1cc(-c3ccccc3OC)c3c(c1)cc(C1=CCCN(C(=O)CCn4ccnn4)C1)n3CC1CC1)C2 [Example I-530]
- IC50 (30 minutes at room temperature): < 100 nM

Compound: COc1ccccc1-c1cc(C2=CCCN(C(=O)CCn3ccnn3)C2)c(F)c2[nH]c(C(=O)N3CCN(CCN4CCC(F)(F)C4)CC3)cc12 [Example I-1354]
- IC50 (30 minutes room temperature): 100 to 1000 nM

Compound: CCn1ncc2c1CN(C(=O)c1cc3c([C@H]4CCN(C)C4)cc(C4=CCCN(C(=O)CCn5ccnn5)C4)c(F)c3[nH]1)C2 [Example I-1210]
- IC50 (30 minutes at room temperature): < 100 nM

Compound: CCc1ccncc1-c1cc(C2=CCCN(C(=O)CCn3ccnn3)C2)c(F)c2[nH]c(C(=O)N3CCN(c4ccccc4OC)CC3)cc12 [Example I-471]
- IC50 (30 minutes at room temperature): < 100 nM

Compound: COc1ccccc1-c1cc(C2=CCCN(C(=O)CCn3ccnn3)C2)c(F)c2[nH]c(C(=O)N3CCN(c4c(F)ccc5cnccc45)CC3)cc12 [Example I-972]
- IC50 (30 minutes at room temperature): < 100 nM

Compound: Cn1ncc2ccc(-c3cc4cc(C5=CCCN(C(=O)CCn6ccnn6)C5)ccc4o3)cc21 [Example I-1285]
- IC50 (30 minutes room temperature): 10000 to 100000 nM

Compound: CCc1nc(C)ccc1-c1cc(C(=O)N2CCN(c3ncc(F)cc3OC)CC2)cc2c(F)c(C3=CCCN(C(=O)CC(=O)O)C3)n(CC3CC3)c12 [Example I-1216]
- IC50 (30 minutes at room temperature): > 100000 nM

Compound: COc1cc(F)cnc1N1CCN(C(=O)c2cc(-c3cccnc3C3CC3)c3c(c2)cc(C2=CCCN(C(=O)CCn4ccnn4)C2)n3CC2CC2)CC1 [Example I-728]
- IC50 (30 minutes at room temperature): > 100000 nM

Compound: COc1ccccc1-c1cc(C2=CCCN(C(=O)CCn3ccnn3)C2)c(F)c2[nH]c(C(=O)N3CCN(c4c(C)cc[nH]c4=O)CC3)cc12 [Example I-1030]
- IC50 (30 minutes at room temperature): < 100 nM

Compound: COc1cccnc1N1CCN(C(=O)c2cc3c(-c4cccc(F)c4F)cc(C4=CCCN(C(=O)CCn5ccnn5)C4)c(F)c3[nH]2)CC1 [Example I-371]
- IC50 (30 minutes at room temperature): < 100 nM

Compound: CC(=O)N1CCC=C(c2cc(-c3ccc(C(=O)N4CCCC4)cc3)c3cc(C(=O)N(C)C)[nH]c3c2F)C1 [Example I-1492]
- IC50 (30 minutes room temperature): < 100 nM

Compound: CCc1cc(C)ncc1-c1cc(C2=CCCN(C(=O)CCc3nccs3)C2)c(F)c2[nH]c(C(=O)N3CCN(c4nc(C)ccc4OC)CC3)cc12 [Example I-526]
- IC50 (30 minutes at room temperature): < 100 nM

Compound: COc1ccccc1-c1cc(C2=CCCN(C(=O)CCn3ccnn3)C2)c(F)c2[nH]c(C(=O)N3CCN(c4cc5ccccc5nc4O)CC3)cc12 [Example I-952]
- IC50 (30 minutes at room temperature): < 100 nM

Compound: COc1ccccc1-c1cc(C2=CCCN(C(=O)CCn3ccnn3)C2)c(F)c2[nH]c(C(=O)N3CCNC4(CC4)C3)cc12 [Example I-1370]
- IC50 (30 minutes room temperature): < 100 nM

Compound: CN(C)C(=O)c1cc2c(F)c(C3=CCCN(C(=O)[C@H]4Cc5ccccc5CN4C=O)C3)ccc2o1 (single isomer, unassigned) [Example I-376]
- IC50 (30 minutes at room temperature): 1000 to 10000 nM

Compound: COc1ccccc1-c1cc(C2=CCCN(C(=O)CCn3ccnn3)C2)c(F)c2[nH]c(C(=O)N3CCN(c4c(OC)cccc4OC)CC3)cc12 [Example I-350]
- IC50 (30 minutes at room temperature): < 100 nM

Compound: COc1cc(F)cnc1N1CCN(C(=O)c2cc(-c3cccnc3C3CC3)c3[nH]c(C4CCCN(C(=O)CCn5ccnn5)C4)cc3c2)CC1 (stereo not shown) [Example I-1204]
- IC50 (30 minutes at room temperature): 1000 to 10000 nM

Compound: CCc1cnccc1-c1cc(C2=CCCN(C(=O)CCn3cccn3)C2)c(F)c2[nH]c(C(=O)N3CCN(c4ncc(OC)cc4OC)CC3)cc12 [Example I-684]
- IC50 (30 minutes at room temperature): < 100 nM

Compound: COc1ccncc1-c1cc(C2=CCCN(C(=O)CCn3ccnn3)C2)c(F)c2[nH]c(C(=O)N3CCN(c4ncccc4OC4CC4)CC3)cc12 [Example I-456]
- IC50 (30 minutes at room temperature): < 100 nM

Compound: CN(C)C(=O)c1cc2ccc(C3=CCCN(C(=O)c4cccnc4SCc4ccccc4)C3)cc2[nH]1 [Example I-95]
- IC50 (30 minutes at room temperature): 10000 to 100000 nM

Compound: C[C@@H](Cn1ccnn1)C(=O)N1CCC=C(c2ccc3oc(C(=O)N(C)C)cc3c2)C1 (single isomer, unassigned) [Example I-229]
- IC50 (30 minutes at room temperature): 10000 to 100000 nM

Compound: CN(C)C(=O)c1cc2ccc(C3=CCCN(C(=O)c4snnc4C4CC4)C3)cc2[nH]1 [Example I-143]
- IC50 (30 minutes at room temperature): 10000 to 100000 nM

Compound: Cc1cc(-c2cc(C3=CCCN(C(=O)CCn4ccnn4)C3)cc3cc(C(=O)N(C)C)oc23)n(C)n1 [Example I-1070]
- IC50 (30 minutes at room temperature): < 100 nM

Compound: COc1ccncc1-c1cc(C(=O)N2Cc3cnn(C)c3C2)cc2cc(C3CCCN(C(=O)CCn4ccnn4)C3)[nH]c12 (stereo not shown) [Example I-1262]
- IC50 (30 minutes room temperature): 10000 to 100000 nM

Compound: COc1ccccc1-c1cc(C2=CCCN(C(=O)CCn3ccnn3)C2)c(F)c2[nH]c(C(=O)N3CCN(c4c(C)nn(C)c4C#N)CC3)cc12 [Example I-775]
- IC50 (30 minutes at room temperature): < 100 nM

Compound: CCc1cnccc1-c1cc(C2=CCCN(C(=O)CCn3ccnn3)C2)c(F)c2[nH]c(C(=O)N3CCN(c4ncc(OC)cc4OC)CC3)cc12 [Example I-484]
- IC50 (30 minutes at room temperature): > 100000 nM

Compound: CCc1nc(C)ccc1-c1cc(C(=O)N2CCN(c3ncc(F)cc3OC)CC2)cc2cc(C3=CCCN(C(=O)CCn4ccnn4)C3)n(CC(C)C)c12 [Example I-524]
- IC50 (30 minutes at room temperature): < 100 nM

Compound: CC(=O)c1cc(C(=O)N2CCC=C(c3ccc4cc(C(=O)N(C)C)[nH]c4c3)C2)n[nH]1 [Example I-49]
- IC50 (30 minutes at room temperature): 10000 to 100000 nM

Compound: COc1ccccc1-c1cc(C2=CCCN(C(=O)CCn3ccnn3)C2)c(F)c2[nH]c(C(=O)Nc3cccc(S(C)(=O)=O)c3)cc12 [Example I-1396]
- IC50 (30 minutes room temperature): 100 to 1000 nM

Compound: COc1cccnc1N1CCN(C(=O)c2cc3c(-c4cnc(C)c(C)c4OC)cc(C4=CCCN(C(=O)CCn5ccnn5)C4)c(F)c3[nH]2)CC1 [Example I-724]
- IC50 (30 minutes at room temperature): < 100 nM

Compound: COc1ccccc1-c1cc(C2=CCCN(C(=O)CCn3ccnn3)C2)c(F)c2[nH]c(C(=O)N3CCC(O)(C(F)(F)F)CC3)cc12 [Example I-1414]
- IC50 (30 minutes room temperature): 100 to 1000 nM
